# Test results reported in PubChem BioAssay AID624417 (National Center for Advancing Translational Sciences (NCATS), 2012).
# The whole screen tested about 410,000 compounds, of which about 6,400 (1.6%) were called active. The inconclusive results got no clear call from the source; some entries with a clear call stand among them for comparison. Calls follow the shape of the dose curve; as a rule, active = well fitted inhibition curve with a large enough effect; inconclusive = small, poorly fitted or top-dose-only effect; inactive = no such curve, though single readings can be large or run the other way. Potencies of inconclusive entries are left out as doubtful fits.
# Molecular target: Glucagon-like peptide 1 receptor (Homo sapiens) (UniProt P43220)
# Chain of UniProt P43220 (P43220 whole entry, looked up): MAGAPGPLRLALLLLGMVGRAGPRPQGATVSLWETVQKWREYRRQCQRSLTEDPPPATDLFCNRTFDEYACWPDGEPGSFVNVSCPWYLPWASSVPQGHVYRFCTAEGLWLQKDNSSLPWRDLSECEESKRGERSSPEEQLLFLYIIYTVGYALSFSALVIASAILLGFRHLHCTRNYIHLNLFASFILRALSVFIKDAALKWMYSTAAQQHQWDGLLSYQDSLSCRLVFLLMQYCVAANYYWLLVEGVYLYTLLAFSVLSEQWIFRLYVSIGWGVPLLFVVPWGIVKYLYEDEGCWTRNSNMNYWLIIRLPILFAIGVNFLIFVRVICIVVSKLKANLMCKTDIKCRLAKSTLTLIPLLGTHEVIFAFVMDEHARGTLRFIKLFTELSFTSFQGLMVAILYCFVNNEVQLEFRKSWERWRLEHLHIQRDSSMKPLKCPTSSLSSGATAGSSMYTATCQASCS
# Assay: qHTS of GLP-1 Receptor Inverse Agonists (Inhibition Mode); also: nearly all actives have a fitted effect of over 55% in size
# Conditions: HEK293 GLP-1R CRE-luciferase, luminescence, 24 h, GLP-1R form is constitutively active; activity change, negative = inhibition: at 38.3 µM (top of the series) unless noted
# Method in brief: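 Constitutively active GLP-1R drives a cAMP-responsive luciferase in stably transfected HEK293 cells; test compounds are added after overnight (12 h) attachment and left 24 hr, and signal loss in luminescence marks inhibition.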
# % is scaled to controls: 0 for no effect and ±100 for the full control effect; potency is read from the fitted curve at half-maximal effect; tags tell the direction and shape of the fitted curve.
Structure (SMILES),Potency,"activity change, negative = inhibition"
CCN(CC)CCCNC(=O)CCCn1c(=O)[nH]c2ccc(Br)cc2c1=O,"inconclusive [inhibitor, single point]",
COc1ccc2[nH]c(C(=O)N/N=C/c3cc(OC)c(OC)c(OC)c3)cc2c1,"inconclusive [inhibitor, single point]",
CCOCCn1c(COc2ccccc2)nc2ccccc21,"inconclusive [inhibitor, partial curve, poor fit]",
COc1ccc(CC(=O)O/N=C(\N)c2ccc(OC)cc2)cc1,"inconclusive [inhibitor, single point]",
Cc1onc(-c2ccccc2)c1C(=O)OCC(=O)Nc1ccc(OC(F)(F)F)cc1,"inconclusive [inhibitor, single point]",
COc1cccc(CNC(=O)CN2N=C(c3ccc(C)cc3)CCC2=O)c1,,inactive: 0%
CC(=O)[C@H]1CC[C@H]2[C@@H]3CC=C4C[C@@H](OS(=O)(=O)O)CC[C@]4(C)[C@H]3CC[C@]12C,,inactive: 29.9%
COC(=O)c1cc(S(=O)(=O)NCC2CCN(Cc3ccc(Cl)cc3)CC2)cn1C,"inconclusive [inhibitor, partial curve, poor fit]",
CCO[C@@H]1OC(C(=O)N2CCN(Cc3ccc4c(c3)OCO4)CC2)=C[C@H](c2csc3ccccc23)[C@H]1CCCO,"inconclusive [inhibitor, partial curve, poor fit]",
CCC(=O)Nc1ccc(C)cc1-c1nc2ccccc2n(C(C)C(=O)Nc2ccccc2CC)c1=O (centres undefined),"inconclusive [inhibitor, partial curve, poor fit]",
CN1C(=O)c2ccccc2Sc2ccc(NC(=O)Cc3c(F)cccc3Cl)cc21,"inconclusive [inhibitor, partial curve, poor fit]",
COc1ccc(C/C(C)=N/NC(=S)Nc2ccc(C)c(C)c2)cc1,,inactive: -11.6%
COc1cc2cc(C)c(Br)c(OC)c2cc1OC,"inconclusive [inhibitor, single point]",
C/C(CC(=O)Nc1ccc(C)c(Cl)c1)=N\NC(=O)c1cccc(O)c1,"inconclusive [inhibitor, partial curve, poor fit]",
O=C(NCc1ccccc1)c1cc(C2CCCCN2C(=O)c2cccs2)on1 (centres undefined),"inconclusive [inhibitor, single point]",
CCCCNC(=S)NC1CCCC1,"inconclusive [inhibitor, single point]",
CC[C@]12c3[nH]c4ccccc4c3CCN1C(=O)C(CC(=O)NC/C=C(\C)CCC=C(C)C)C[C@@H]2C(=O)N1CCN(C(=O)C2CC2)CC1 (some centres undefined),"inconclusive [inhibitor, single point]",
N#C/C(=C(/O)COC(=O)c1ccc2c(c1)OCCO2)c1nc2ccccc2[nH]1,"inconclusive [inhibitor, single point]",
CNC(=O)CCCc1nc(-c2ccccc2Cl)no1,"inconclusive [inhibitor, single point]",
COc1ccccc1CCC(=O)OCC(=O)c1c(N)n(CC(C)C)c(=O)n(C)c1=O,"inconclusive [inhibitor, single point]",

Structure (SMILES),Potency,"activity change, negative = inhibition"
Cc1ccc2nc(C(=O)N3CCc4c([nH]c5ccccc45)C3c3ccccn3)cn2c1 (centres undefined),"inconclusive [inhibitor, single point]",
CCn1c(SCc2ccccc2)nc2ccccc2c1=O,"inconclusive [inhibitor, partial curve, poor fit]",
CCOc1cc(/C=C/C(=O)OCC(=O)NC2CCS(=O)(=O)C2)ccc1OCc1ccccc1 (centres undefined),"inconclusive [inhibitor, single point]",
CCN(CC)CCNC(=O)NC(=O)c1ccc(Cl)cc1,,inactive: -15%
CC1CC(C)CN(S(=O)(=O)c2cccc3cccnc23)C1 (centres undefined),"inconclusive [inhibitor, single point]",
O=C(Nc1ccccc1-c1ccccc1)c1ccccc1,"inconclusive [inhibitor, single point]",
CCOC(=O)c1cnc(Nc2ccccc2)nc1C(F)(F)F,"inconclusive [inhibitor, single point]",
COc1ccc(C(=O)NCCc2nc3cc([N+](=O)[O-])ccc3n2C)cc1,,inactive: 7.62%
CCCCn1nc(C(=O)NCC2COc3ccccc3O2)c2ccccc2c1=O (centres undefined),"inconclusive [inhibitor, single point]",
O=c1cc2c(nn1Cc1cccc(Cl)c1)-c1ccccc1CC2,"inconclusive [inhibitor, partial curve, poor fit]",
CCn1c2ccccc2c2cc(CN3CCN(S(=O)(=O)Cc4ccccc4)CC3)ccc21,"inconclusive [inhibitor, single point]",
COc1ccccc1[C@@H]1C(c2cccc(C)c2)=NN(c2ccccc2)[C@H]1C(=O)N1CCOC1=O,"inconclusive [inhibitor, partial curve, poor fit]",
CC(C)(C)C(=O)NC(NC(=S)Nc1sc2c(c1C#N)CCCC2)C(Cl)(Cl)Cl (centres undefined),"inconclusive [inhibitor, single point]",
C[C@@H]1CN([C@H](C)CO)C(=O)c2cc(NC(=O)Nc3ccc(C(F)(F)F)cc3)ccc2O[C@H]1CN(C)S(=O)(=O)c1ccccc1,"inconclusive [inhibitor, partial curve, poor fit]",
CC(C)(C)OC(=O)N1CCC(c2c(C(=O)NCC3CCN(C4CCCC4)C3)cnn2-c2ccccc2)CC1 (centres undefined),"inconclusive [inhibitor, single point]",
Cc1ccccc1N(C)C(=O)c1noc2c1COc1ccccc1-2,"inconclusive [inhibitor, single point]",
Cc1ccc(Nc2nc(N)c([N+](=O)[O-])c(N3CCOCC3)n2)cc1C,"inconclusive [inhibitor, single point]",
CCCOc1cccc(CN2CCCCC2c2cccnc2)c1 (centres undefined),"inconclusive [inhibitor, partial curve, poor fit]",
CCN(c1ccc(OC)cc1)S(=O)(=O)c1nnc(NC(=O)COc2ccc(F)cc2)s1,"inconclusive [inhibitor, full curve, poor fit]",
Cc1ccc(NC(=O)C(C)c2ccc(-c3ccccc3)c(F)c2)c(C)c1 (centres undefined),"inconclusive [inhibitor, full curve, poor fit]",

Structure (SMILES),Potency,"activity change, negative = inhibition"
Cc1ccc(N2C(=O)Nc3ccccc3C2(O)C(=O)N2CCN(c3ccccn3)CC2)cc1C (centres undefined),,inactive: 7.32% [at 0.307 µM]
Nc1ccc(CSc2ccccc2)cc1,"inconclusive [inhibitor, single point]",
COc1ccc([C@H]2CC(=O)C=C(c3cc(Cl)cc(Cl)c3)C2)cc1,"inconclusive [inhibitor, single point]",
O=C(NCCN1CCCC1)c1ccc2c(c1)N(Cc1cccc(Cl)c1)C(=O)c1ccccc1S2(=O)=O,"inconclusive [inhibitor, partial curve, poor fit]",
Cc1c(C(=O)NCc2ccccc2)oc2ccc(S(=O)(=O)N3CCCC3)cc12,"inconclusive [inhibitor, single point]",
C#CCn1c(/C=C/c2ccc(Cl)cc2)nc2ccccc21,"inconclusive [inhibitor, single point]",
O=[N+]([O-])c1ccc2c(c1)C(N1CCOCC1)/C(=C/COc1ccc(F)cc1)O2 (centres undefined),"inconclusive [inhibitor, partial curve, poor fit]",
Cn1cc(S(=O)(=O)N2CCCCCC2)cc1C(=O)NCc1ccc(Cl)cc1,"inconclusive [inhibitor, partial curve, poor fit]",
COCCn1c(C)c(C)c2c(NCCc3ccccc3)ncnc21,"inconclusive [inhibitor, full curve, poor fit]",
CCN1CCOC(=O)C1CC(=O)Nc1cccc(OC)c1 (centres undefined),,inactive: 5.36%
O=C(NNc1nc2ccccc2s1)Nc1ccc(Cl)c(Cl)c1,"inconclusive [inhibitor, single point]",
CC(C)NC(=O)Nc1ccc2c(c1)C(=O)N([C@H](C)CO)C[C@H](C)[C@@H](CN(C)Cc1ccc(C(F)(F)F)cc1)OCCCC[C@H](C)O2,active: 10 µM,
Cc1ccc(S(=O)(=O)N2CCC(C(=O)NNC(=O)c3ccccc3O)CC2)cc1C,"inconclusive [inhibitor, single point]",
NC(N)=Nc1nc(-c2ccccc2)c2cc(Cl)ccc2n1,"inconclusive [inhibitor, single point]",
CCOc1ccc(CCNC(=O)CCn2nc(C)c3c(C)n(-c4ccccc4)nc3c2=O)cc1,"inconclusive [inhibitor, single point]",
COc1ccc(CCNC(=O)c2c(C)oc3nc(C)nc(N4CCOCC4)c23)cc1OC,,inactive: 7.38%
O=[N+]([O-])c1ccc(N=Nc2c(O)[nH]c3ccc(F)cc23)cc1,"inconclusive [inhibitor, partial curve, poor fit]",
CCCCSc1nnc([C@@H]2CCCN2C(=O)OC(C)(C)C)o1,"inconclusive [inhibitor, single point]",
Cc1ccc(CN2CCC(CNC(=O)c3ccc(NC(=O)C4=CSCCO4)cc3)CC2)cc1,"inconclusive [inhibitor, partial curve, poor fit]",
